Test results taken from PubChem BioAssay (NCI).
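Test compounds were applied to cells in 96-well plates for 48 hours at 5 doses. At the GI50, growth is halved.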 Not every entry of the source has a single result; some have several. This is not the full list of results. The source may hold further records. For part of these data: The tests behind the records often covered other concentration ranges, not given here; some values may only mark the edge of a range. Brackets tell where a record comes from. Letters hold for one entry only. For part of these data: Results that share an entry are repeated measurements across runs, samples, wells, individuals or studies.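 TGI: total growth inhibition.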

Key:
Assay in all cases: growth of human tumour cells (NCI), 48 h
[1] = test system: 786-0 renal
[2] = test system: A498 renal
[3] = test system: A549 NSCLC
[4] = test system: ACHN renal
[5] = test system: BT-549 breast
[6] = test system: CAKI-1 renal
[7] = test system: CCRF-CEM leukemia
[8] = test system: COLO 205 colon
[9] = test system: EKVX NSCLC
[10] = test system: HCC-2998 colon
[11] = test system: HCT-116 colon
[12] = test system: HCT-15 colon
[13] = test system: HL-60(TB) leukemia
[14] = test system: HOP-62 NSCLC
[15] = test system: HOP-92 NSCLC
[16] = test system: HS 578T breast
[17] = test system: HT29 colon
[18] = test system: IGROV1 ovarian
[19] = test system: K-562 leukemia
[20] = test system: KM12 colon
[21] = test system: LOX IMVI melanoma
[22] = test system: M14 melanoma
[23] = test system: MALME-3M melanoma
[24] = test system: MCF7 breast
[25] = test system: MDA-MB-231 breast
[26] = test system: MDA-MB-435
[27] = test system: MOLT-4 leukemia

SMILES: Cc1nc(Nc2ncc(C(=O)Nc3c(C)cccc3Cl)s2)cc(N2CCN(CCO)CC2)n1
- GI50 [1]: 123 nM [sample A, 1 test] and 63.7 nM [sample A, mean of 5 tests] and 56.1 nM [sample B, mean of 2 tests] and 31 nM [sample C, mean of 2 tests]
- TGI [1]: 20 µM [sample A, 1 test] and 10.8 µM [sample A, mean of 5 tests] and 13.5 µM [sample B, mean of 2 tests] and > 10 µM [sample C, mean of 2 tests]
- GI50 [2]: 22.4 nM [sample A, 1 test] and 32.8 nM [sample A, mean of 5 tests] and < 29.8 nM [sample B, mean of 2 tests] and 18.5 nM [sample C, mean of 2 tests]
- TGI [2]: 187 nM [sample A, 1 test] and 803 nM [sample A, mean of 5 tests] and 360 nM [sample B, mean of 2 tests] and 203 nM [sample C, mean of 2 tests]
- TGI [3]: 3.28 µM [sample A, 1 test] and 16.7 µM [sample A, mean of 5 tests] and 19.7 µM [sample B, mean of 2 tests] and > 10 µM [sample C, mean of 2 tests]
- GI50 [4]: 18.4 nM [sample A, 1 test] and 12.2 nM [sample A, mean of 5 tests] and 24.5 nM [sample B, mean of 2 tests] and 7.41 nM [sample C, mean of 2 tests]
- TGI [4]: 20 µM [sample A, 1 test] and 353 nM [sample A, mean of 5 tests] and 15.5 µM [sample B, mean of 2 tests] and 214 nM [sample C, mean of 2 tests]
- GI50 [5]: 7.65 µM [sample A, 1 test] and 5.96 µM [sample A, mean of 4 tests] and 4.39 µM [sample B, 1 test] and > 6.36 µM [sample C, mean of 2 tests]
- TGI [5]: 20 µM [sample A, 1 test] and 21.2 µM [sample A, mean of 4 tests] and 17.2 µM [sample B, 1 test] and > 10 µM [sample C, mean of 2 tests]
- GI50 [6]: 18.8 nM [sample A, 1 test] and 11.9 nM [sample A, mean of 4 tests] and < 10.4 nM [sample B, mean of 2 tests] and 17.2 nM [sample C, mean of 2 tests]
- TGI [6]: 873 nM [sample A, 1 test] and 51.9 nM [sample A, mean of 4 tests] and 151 nM [sample B, mean of 2 tests] and 131 nM [sample C, mean of 2 tests]
- GI50 [7]: 7.33 µM [sample A, 1 test] and 5.29 µM [sample A, mean of 5 tests] and 5.85 µM [sample B, mean of 2 tests] and > 7.25 µM [sample C, mean of 2 tests]
- TGI [7]: 20 µM [sample A, 1 test] and 52.5 µM [sample A, mean of 5 tests] and 47.5 µM [sample B, mean of 2 tests] and > 10 µM [sample C, mean of 2 tests]
- GI50 [8]: 37.1 nM [sample A, 1 test] and 20.4 nM [sample A, mean of 5 tests] and 65.1 nM [sample B, 1 test] and 75.9 nM [sample C, mean of 2 tests]
- TGI [8]: 20 µM [sample A, 1 test] and 2.78 µM [sample A, mean of 5 tests] and 2.96 µM [sample B, 1 test] and > 2.7 µM [sample C, mean of 2 tests]
- TGI [9]: 20 µM [sample A, 1 test] and 25 µM [sample A, mean of 5 tests] and > 66.4 µM [sample B, mean of 2 tests] and > 10 µM [sample C, mean of 2 tests]
- GI50 [10]: 13 µM [sample A, 1 test] and 11.8 µM [sample A, mean of 5 tests] and 12.5 µM [sample B, mean of 2 tests] and > 10 µM [sample C, mean of 2 tests]
- TGI [10]: 20 µM [sample A, 1 test] and 27 µM [sample A, mean of 5 tests] and 26.5 µM [sample B, mean of 2 tests] and > 10 µM [sample C, mean of 2 tests]
- GI50 [11]: 3.71 µM [sample A, 1 test] and 2.01 µM [sample A, mean of 4 tests] and 3.33 µM [sample B, mean of 2 tests] and 47.8 nM [sample C, mean of 2 tests]
- TGI [11]: 20 µM [sample A, 1 test] and 18 µM [sample A, mean of 4 tests] and 16.3 µM [sample B, mean of 2 tests] and > 10 µM [sample C, mean of 2 tests]
- TGI [12]: 20 µM [sample A, 1 test] and 18 µM [sample A, mean of 5 tests] and 36.5 µM [sample B, mean of 2 tests] and > 10 µM [sample C, mean of 2 tests]
- GI50 [13]: 7.74 µM [sample A, 1 test] and 5.66 µM [sample A, mean of 5 tests] and 13.4 µM [sample B, mean of 2 tests] and > 8.51 µM [sample C, mean of 2 tests]
- TGI [13]: 20 µM [sample A, 1 test] and 34 µM [sample A, mean of 5 tests] and 34.3 µM [sample B, mean of 2 tests] and > 10 µM [sample C, mean of 2 tests]
- GI50 [14]: 36.4 nM [sample A, 1 test] and 14.5 nM [sample A, mean of 5 tests] and 61.1 nM [sample B, mean of 2 tests] and 29.5 nM [sample C, mean of 2 tests]
- TGI [14]: 20 µM [sample A, 1 test] and 1.26 µM [sample A, mean of 5 tests] and 25.7 µM [sample B, mean of 2 tests] and > 10 µM [sample C, mean of 2 tests]
- GI50 [15]: 75.2 nM [sample A, mean of 3 tests] and < 10 nM [sample B, 1 test] and 1.56 nM [sample C, 1 test]
- TGI [15]: 49.7 µM [sample A, mean of 3 tests] and 20.5 nM [sample B, 1 test] and 37.9 nM [sample C, 1 test]
- GI50 [16]: 25.1 nM [sample A, 1 test] and < 10.9 nM [sample A, mean of 5 tests] and < 15.9 nM [sample B, mean of 2 tests] and 2.65 nM [sample C, mean of 2 tests]
- TGI [16]: 20 µM [sample A, 1 test] and 58.5 nM [sample A, mean of 5 tests] and 18.6 nM [sample B, mean of 2 tests]
- TGI [17]: 41.2 µM [sample A, mean of 3 tests] and 1.14 µM [sample B, mean of 2 tests] and > 10 µM [sample C, mean of 2 tests]
- GI50 [18]: 25.2 nM [sample A, 1 test] and 10 nM [sample A, mean of 4 tests] and < 12.1 nM [sample B, mean of 2 tests] and 4.14 nM [sample C, 1 test]
- TGI [18]: 20 µM [sample A, 1 test] and 390 nM [sample A, mean of 4 tests] and 330 nM [sample B, mean of 2 tests] and 141 nM [sample C, 1 test]
- TGI [19]: 20 µM [sample A, 1 test] and > 63 µM [sample A, mean of 4 tests] and > 100 µM [sample B, 1 test] and > 10 µM [sample C, mean of 2 tests]
- TGI [20]: 20 µM [sample A, 1 test] and 25.4 µM [sample A, mean of 5 tests] and 26.7 µM [sample B, mean of 2 tests] and > 10 µM [sample C, mean of 2 tests]
- TGI [21]: 367 nM [sample A, 1 test] and 483 nM [sample A, mean of 5 tests] and 85 nM [sample B, mean of 2 tests] and 60.4 nM [sample C, mean of 2 tests]
- TGI [22]: 20 µM [sample A, 1 test] and 14.8 µM [sample A, mean of 5 tests] and 13.5 µM [sample B, mean of 2 tests] and > 10 µM [sample C, mean of 2 tests]
- TGI [23]: 20 µM [sample A, 1 test] and 17.9 µM [sample A, mean of 3 tests] and 25.7 µM [sample B, mean of 2 tests] and > 10 µM [sample C, mean of 2 tests]
- GI50 [24]: 8.32 µM [sample A, 1 test] and 12.6 µM [sample A, mean of 5 tests] and 12.3 µM [sample B, mean of 2 tests] and > 10 µM [sample C, mean of 2 tests]
- TGI [24]: 20 µM [sample A, 1 test] and 30.9 µM [sample A, mean of 5 tests] and 37.1 µM [sample B, mean of 2 tests] and > 10 µM [sample C, mean of 2 tests]
- TGI [25]: 3.8 µM [sample A, 1 test] and 3.37 µM [sample A, mean of 5 tests] and 21.7 µM [sample B, mean of 2 tests] and 3.04 µM [sample C, mean of 2 tests]
- TGI [26]: 20 µM [sample A, 1 test] and 18.7 µM [sample A, mean of 5 tests] and 23.6 µM [sample B, mean of 2 tests] and > 10 µM [sample C, mean of 2 tests]
- TGI [27]: 20 µM [sample A, 1 test] and 44.9 µM [sample A, mean of 5 tests] and 39.9 µM [sample B, mean of 2 tests] and > 10 µM [sample C, mean of 2 tests]
